Here are results for 5 molecules from patent US9693990B2, “Use of rhodamine dyes to reduce alveolar surface tension” (THE TRUSTEES OF THE STEVENS INSTITUTE OF TECHNOLOGY, priority 2011, dated 2017).

The test system of series [1] is flooded alveoli of the isolated rat lung. The series is described as follows: Surface tension in flooded alveoli by the Laplace relation, local alveolar edema model, isolated unperfused rat lung. Particulars: for Liquid Phase Pressure / Meniscus Radius: ± SD; for effect on meniscus radius and liquid phase pressure: 1 μM RWT or SRB in about 5% BSA flooding solution.
Series [2] concerns flooded alveoli, local edema model, isolated rat lung. The series can be described thus: Ventilation-induced flooded alveolar clearance, local edema model. The method, then: Darker areas, such as areas 38, indicate aerated alveoli. […] The micrographs and graph of FIGS. 10C and 10D show the results of the same experiment replicated in a global permeability edema model with inclusion of fluorescein (36 μM) or RWT (2 μM) in the perfusate. In all micrographs of FIGS. 10A and 10C, exemplary flooded alveoli are shown as a lighter gray than aerated alveoli.

For series [3] the following is noted: 25-80% of the LD50 over 1-5 days; cited from earlier work.
For series [4], the system named is mammalian cell. The settings on record: 4 mM; purity not known; cited from earlier work.
Series [5] concerns mammalian cell. Particulars: cited from earlier work.
For series [6] the following is noted: cited from earlier work.
The conditions of series [7]: cited from earlier work. This is another data set of the same source.
For series [8], the system named is pregnant rats. Particulars: 2000 mg/kg SRB to pregnant rats; cited from earlier work.
The subject of another series is rats. Particulars: diet of 5% of greater than 99% purity SRB over two years; cited from earlier work.
For series [9] the following is noted: SRB alone; cited from earlier work.
The conditions of series [10]: only such study; tested SRB concentration not stated; cited from earlier work.
A further series concerns mature rats. The settings on record: 1000 mg/kg/day, greater than 99% purity SRB, 13 weeks; cited from earlier work.
The conditions of series [11]: 10 μM and 1.7 mM; SRB of unknown purity; cited from earlier work.
Another series concerns cultured fetal rat cells. The settings on record: SRB at 1 to 2 mM, cited from earlier work.
The test system of series [12] is alveolar-capillary barrier in heterogeneously flooded regions of the isolated, perfused rat lung. The series is described as follows: Ventilation injury of the alveolar-capillary barrier (alveolar liquid fluorescence, injury score), isolated perfused rat lung. Particulars: 5% BSA, 5% fibrinogen or normal saline alone, with or without 1 μM SRB; PEEP 15 cmH2O, tidal volume 6 ml/kg.

For another series, the system named is mice. Particulars: one-time 2000 mg/kg, greater than 90% purity SRB; cited from earlier work.
The subject of series [13] is pregnant rats. Particulars: 1000 mg/kg/day, greater than 99% purity SRB, 12 days; cited from earlier work.
Where [14] appears, read: PALV=15 cmH2O, 5% BSA flooding, BCECF 31 μM, fluorescein 31 μM, calcein red-orange AM 19 μM, SRG 0.9 μM.
[15] abbreviates: alveolar pressure 5 cmH2O, pooled group SRB or RWT added (n = 8).
The mark [16] stands for this setting: alveolar pressure 15 cmH2O, pooled group SRB or RWT added (n = 40).
The mark [17] stands for this setting: about 2 μM to about 10 μM, SRB of unknown purity.

Like-named read-outs stand apart in the source and are kept apart here.

“2′,7′-bis-(2-carboxyethyl)-5-(and -6)-carboxyfluorescein [BCECF, reference compound]”: the “effect of dye on surface tension” value is given as “increased surface tension above control” in series [1] (PALV=5 cmH2O, alveoli flooded with 5% fatty acid-bound BSA in normal saline) and “do not alter surface tension” in series [1] (setting [14]). For the same molecule, the “flooded alveolar clearance during ventilation” value in series [2] (local edema model, 4% BSA in normal saline with BCECF 25 μM or RWT 0.8 μM) is “do not”.
Regarding `CCN(CC)c1ccc2c(-c3ccc(C(=O)[O-])cc3C(=O)[O-])c3ccc(=[N+](CC)CC)cc-3oc2c1.[Cl-].[Na+].[Na+]` [RWT, rhodamine WT], in series [3], the “histopathologic changes, micronuclei generation, sperm abnormalities” value is on record as “did not cause histopathologic changes, increase the rate of micronuclei generation or increase the rate of occurrence of sperm abnormalities”. Further, the genotoxicity result in the series with mammalian cell [4] is reported as “negative”; in the series with mammalian cell [5] (12 mM, purity not known), “negative”; in the series on mammalian cell [5] (about 2 to about 10 μM, purity not known), “positive”; in [6] (about 2 to about 10 μM and 4 mM, purity not known) it was “positive”. Further, the “Liquid Phase Pressure” value amounted to 1.6 ± 0.7 cmH2O in [1] (setting [15]) and 2.0 ± 0.7 cmH2O in series [1] (setting [16]). The entries for the “Meniscus Radius” value in [1] (setting [15]) and in [1] (setting [16]) were 14.5 ± 3.9 μm and 14.6 ± 1.7 μm, respectively. Further, the “effect on meniscus radius and liquid phase pressure” value in [1] (alveolar pressure 15 cmH2O) is recorded as “decreased meniscus radius without altering liquid phase pressure”. In series [7] (dye purity not known), the LD50 is 430 mg/kg.
For `CCN(CC)c1ccc2c(-c3ccc(S(=O)(=O)O)cc3S(=O)(=O)[O-])c3ccc(=[N+](CC)CC)cc-3oc2c1` [SRB, sulforhodamine B], the “DNA damage in cells biopsied from dams or embryos” value in the series with pregnant rats [8] is on record as “no evidence of DNA damage”. Also, the carcinogenicity entry in the series with rats is reported as “not carcinogenic”. In addition, in series [9], the “concentration at which SRB on its own is surface active” value is recorded as “greater than 1.3 mM”. The genotoxicity entry is on record as “tested positive for genotoxicity” in series [10]; “negative” in series [11]; “negative” with mammalian cell [5] (9 mM, SRB of greater than 99% purity); “negative” with mammalian cell [5] (setting [17]); “negative” in series [6] (9 μmol/plate, SRB of greater than 99% purity); “negative” in series [6] (setting [17]). Moreover, in the series on mature rats, the adverse effects result was “no observable adverse effects”. Moreover, the cytotoxicity entry in the series with cultured fetal rat cells was “not found to be of cytotoxic concern”. The “cytotoxicity in cultured fetal rat cells” value with cultured fetal rat cells (day four and day seven after plating) is “low level toxicity in cultured fetal rat cells at day four after plating that decreased by day seven”. In series [12], the “injury score with different solutes” value is “albumin is necessary for SRB to lessen injury”. In addition, the “rate of generation of micronuclei” value in the series with mice was “did not increase the rate of generation of micronuclei”. For the same molecule, the “effect on surface tension” value in series [1] (1 nM SRB in 1.8 or 2.7% albumin solution) was “not found to be effective”; in series [1] (1.8% albumin solution), “ineffective”; in [1] (2.7% albumin solution, 1 nM SRB, PALV=15 cmH2O) it was “lost efficacy”; in series [1] (2.7% albumin solution, 1 μM SRB) it was “found to lower surface tension”; in series [1] (4.6% 70 kD dextran solution, 1 μM SRB, PALV 15 cmH2O) it was “loses its efficacy”; in series [1] (4.6% fibrinogen solution, 1 μM SRB, PALV 15 cmH2O) it was “shows a tendency to lower surface tension, but does not do so significantly”. Moreover, the “effect on surface tension” value was “effectively lowered surface tension” in [1] (4.6% to 12% albumin solution, 1 nM and 1 μM SRB, PALV=15 cmH2O); “effectively lower surface tension” in series [1] (SRB 1 nM to 100 nM, both 4.6% albumin solution and rat plasma); “does not lower surface tension” in series [1] (absence of albumin, 1 nM and 1 μM SRB, PALV=15 cmH2O). Also, in series [1] (1 nM to 1 μM SRB, about 5% BSA + 31 μM fluorescein, PALV 15 cmH2O), the “surface tension of the flooding liquid lowered by” value was “at least 23%”. The “effect on surface tension of the flooding liquid” value in series [1] (SRB below 1 nM and above 1 μM, about 5% BSA, PALV 15 cmH2O) is recorded as “did not significantly lower the surface tension”. Moreover, the “Liquid Phase Pressure” value in series [1] (setting [15]) was 1.6 ± 0.7 cmH2O; in [1] (setting [16]), 2.0 ± 0.7 cmH2O. The “Meniscus Radius” value in series [1] (setting [15]) was 14.5 ± 3.9 μm; in series [1] (setting [16]), 14.6 ± 1.7 μm. Also, the “effect on meniscus radius and liquid phase pressure” value in [1] (alveolar pressure 15 cmH2O) was “decreased meniscus radius without altering liquid phase pressure”. The “alveolar clearance (expected)” value in series [2] (not tested for SRB, inferred from RWT) is “expected to promote alveolar clearance to the same degree as RWT”. Moreover, the “adverse effects in dams or fetuses” value with pregnant rats [13] is reported as “no observable adverse effects”. Besides, the LD50 entry in series [7] (SRB of unknown purity, European Commission committee report 2008) is “exceed 1000 mg/kg”.
As for `CCN=c1cc2oc3cc(NCC)c(C)cc3c(-c3ccc(S(=O)(=O)O)cc3S(=O)(=O)[O-])c-2cc1C.[Na+]` [SRG, sulforhodamine G, reference compound], the “effect of dye on surface tension” value in series [1] (setting [14]) was “do not alter surface tension”.
Turning to “calcein red-orange AM [reference compound]”, in series [1] (setting [14]), the “effect of dye on surface tension” value is “do not alter surface tension”.
